According to the supplement of paper PMC12458215:
± gives the uncertainty stated by the source.

Tested on: HEK293T
Assay: plasma membrane surface immunostaining intensity (anti-HA, deep receptor scanning) (arbitrary fluorescence units); higher = higher plasma membrane expression
Details: GPCR class: A

Sequence	plasma membrane surface immunostaining intensity
MEEPGAQCAPPPPAGSETWVPQANLSSAPSQNCSAKDYIYQDSISLPWKVLLVMLLALITLATTLSNAFVIATVYRTRKLHTPANYLIASLAVTDLLVSILVMPISTMYTVTGRWTLGQVVCDFWLSSDITCCTASILHLCVIALDRYWAITDAVEYSAKRTPKRAAVMIALVWVFSISISLPPFFWRQAKAEEEVSECVVNTDHILYTVYSTVGAFYFPTLLLIALYGRIYVEARSRILKQTPNRTGKRLTRAQLITDSPGSTSSVTSINSRVPDVPSESGSPVYVNQVKVRVSDALLEKKKLMAARERKATKTLGIILGAFIVCWLPFFIISLVMPICKDACWFHLAIFDFFTWLGYLNSLINPIIYTMSNEDFKQAFHKLIRFKCTS [HTR1B]	5940 ± 140
MEEPQPPRPPASMALLGSQHSGAPSAAGPPGGTSSAATAAVLSFSTVATAALGNLSDASGGGTAAAPGGGGLGGSGAAREAGAAVRRPLGPEAAPLLSHGAAVAAQALVLLLIFLLSSLGNCAVMGVIVKHRQLRTVTNAFILSLSLSDLLTALLCLPAAFLDLFTPPGGSAPAAAAGPWRGFCAASRFFSSCFGIVSTLSVALISLDRYCAIVRPPREKIGRRRALQLLAGAWLTALGFSLPWELLGAPRELAAAQSFHGCLYRTSPDPAQLGAAFSVGLVVACYLLPFLLMCFCHYHICKTVRLSDVRVRPVNTYARVLRFFSEVRTATTVLIMIVFVICCWGPYCFLVLLAAARQAQTMQAPSLLSVVAVWLTWANGAINPVIYAIRNPNISMLLGRNREEGYRTRNVDAFLPSQGPGLQARSRSRLRNRYANRLGACNRMSSSNPASGVAGDVAMWARKNPVVLFCREGPPEPVTAVTKQPKSEAGDTSL [GPR135]	198 ± 14
MEGEPSQPPNSSWPLSQNGTNTEATPATNLTFSSYYQHTSPVAAMFIVAYALIFLLCMVGNTLVCFIVLKNRHMHTVTNMFILNLAVSDLLVGIFCMPTTLVDNLITGWPFDNATCKMSGLVQGMSVSASVFTLVAIAVERFRCIVHPFREKLTLRKALVTIAVIWALALLIMCPSAVTLTVTREEHHFMVDARNRSYPLYSCWEAWPEKGMRRVYTTVLFSHIYLAPLALIVVMYARIARKLCQAPGPAPGGEEAADPRASRRRARVVHMLVMVALFFTLSWLPLWALLLLIDYGQLSAPQLHLVTVYAFPFAHWLAFFNSSANPIIYGYFNENFRRGFQAAFRARLCPRPSGSHKEAYSERPGGLLHRRVFVVVRPSDSGLPSESGPSSGAPRPGRLPLRNGRVAHHGLPREGPGCSHLPLTIPAWDI [NPFFR1]	784 ± 25
MELHNLSSPSPSLSSSVLPPSFSPSPSSAPSAFTTVGGSSGGPCHPTSSSLVSAFLAPILALEFVLGLVGNSLALFIFCIHTRPWTSNTVFLVSLVAADFLLISNLPLRVDYYLLHETWRFGAAACKVNLFMLSTNRTASVVFLTAIALNRYLKVVQPHHVLSRASVGAAARVAGGLWVGILLLNGHLLLSTFSGPSCLSYRVGTKPSASLRWHQALYLLEFFLPLALILFAIVSIGLTIRNRGLGGQAGPQRAMRVLAMVVAVYTICFLPSIIFGMASMVAFWLSACRSLDLCTQLFHGSLAFTYLNSVLDPVLYCFSSPNFLHQSRALLGLTRGRQGPVSDESSYQPSRQWRYREASRKAEAIGKLKVQGEVSLEKEGSSQG [OXER1]	5610 ± 69
MEPHDSSHMDSEFRYTLFPIVYSIIFVLGVIANGYVLWVFARLYPCKKFNEIKIFMVNLTMADMLFLITLPLWIVYYQNQGNWILPKFLCNVAGCLFFINTYCSVAFLGVITYNRFQAVTRPIKTAQANTRKRGISLSLVIWVAIVGAASYFLILDSTNTVPDSAGSGNVTRCFEHYEKGSVPVLIIHIFIVFSFFLVFLIILFCNLVIIRTLLMQPVQQQRNAEVKRRALWMVCTVLAVFIICFVPHHVVQLPWTLAELGFQDSKFHQAINDAHQVTLCLLSTNCVLDPVIYCFLTKKFRKHLTEKFYSMRSSRKCSRATTDTVTEVVVPFNQIPGNSLKN [PTAFR]	5500 ± 180
MEPLFPASTPSWNASSPGAASGGGDNRTLVGPAPSAGARAVLVPVLYLLVCAAGLGGNTLVIYVVLRFAKMKTVTNIYILNLAVADVLYMLGLPFLATQNAASFWPFGPVLCRLVMTLDGVNQFTSVFCLTVMSVDRYLAVVHPLSSARWRRPRVAKLASAAAWVLSLCMSLPLLVFADVQEGGTCNASWPEPVGLWGAVFIIYTAVLGFFAPLLVICLCYLLIVVKVRAAGVRVGCVRRRSERKVTRMVLVVVLVFAGCWLPFFTVNIVNLAVALPQEPASAGLYFFVVILSYANSCANPVLYGFLSDNFRQSFQKVLCLRKGSGAKDADATEPRPDRIRQQQEATPPAHRAAANGLMQTSKL [SSTR5]	5420 ± 190
MERAPPDGPLNASGALAGEAAAAGGARGFSAAWTAVLAALMALLIVATVLGNALVMLAFVADSSLRTQNNFFLLNLAISDFLVGAFCIPLYVPYVLTGRWTFGRGLCKLWLVVDYLLCTSSAFNIVLISYDRFLSVTRAVSYRAQQGDTRRAVRKMLLVWVLAFLLYGPAILSWEYLSGGSSIPEGHCYAEFFYNWYFLITASTLEFFTPFLSVTFFNLSIYLNIQRRTRLRLDGAREAAGPEPPPEAQPSPPPPPGCWGCWQKGHGEAMPLHRYGVGEAAVGAEAGEATLGGGGGGGSVASPTSSSGSSSRGTERPRSLKRGSKPSASSASLEKRMKMVSQSFTQRFRLSRDRKVAKSLAVIVSIFGLCWAPYTLLMIIRAACHGHCVPDYWYETSFWLLWANSAVNPVLYPLCHHSFRRAFTKLLCPQKLKIQPHSSLEHCWK [HRH3]	462 ± 29
METSSPRPPRPSSNPGLSLDARLGVDTRLWAKVLFTALYALIWALGAAGNALSAHVVLKARAGRAGRLRHHVLSLALAGLLLLLVGVPVELYSFVWFHYPWVFGDLGCRGYYFVHELCAYATVLSVAGLSAERCLAVCQPLRARSLLTPRRTRWLVALSWAASLGLALPMAVIMGQKHELETADGEPEPASRVCTVLVSRTALQVFIQVNVLVSFVLPLALTAFLNGVTVSHLLALCSQVPSTSTPGSSTPSRLELLSEEGLLSFIVWKKTFIQGGQVSLVRHKDVRRIRSLQRSVQVLRAIVVMYVICWLPYHARRLMYCYVPDDAWTDPLYNFYHYFYMVTNTLFYVSSAVTPLLYNAVSSSFRKLFLEAVSSLCGEHHPMKRLPPKPQSPTLMDTASGFGDPPETRT [NTSR2]	790 ± 300
MEWDNGTGQALGLPPTTCVYRENFKQLLLPPVYSAVLAAGLPLNICVITQICTSRRALTRTAVYTLNLALADLLYACSLPLLIYNYAQGDHWPFGDFACRLVRFLFYANLHGSILFLTCISFQRYLGICHPLAPWHKRGGRRAAWLVCVAVWLAVTTQCLPTAIFAATGIQRNRTVCYDLSPPALATHYMPYGMALTVIGFLLPFAALLACYCLLACRLCRQDGPAEPVAQERRGKAARMAVVVAAAFAISFLPFHITKTAYLAVRSTPGVPCTVLEAFAAAYKGTRPFASANSVLDPILFYFTQKKFRRRPHELLQKLTAKWQRQGR [P2RY6]	2480 ± 530
MFPNGTASSPSSSPSPSPGSCGEGGGSRGPGAGAADGMEEPGRNASQNGTLSEGQGSAILISFIYSVVCLVGLCGNSMVIYVILRYAKMKTATNIYILNLAIADELLMLSVPFLVTSTLLRHWPFGALLCRLVLSVDAVNMFTSIYCLTVLSVDRYVAVVHPIKAARYRRPTVAKVVNLGVWVLSLLVILPIVVFSRTAANSDGTVACNMLMPEPAQRWLVGFVLYTFLMGFLLPVGAICLCYVLIIAKMRMVALKAGWQQRKRSERKITLMVMMVVMVFVICWMPFYVVQLVNVFAEQDDATVSQLSVILGYANSCANPILYGFLSDNFKRSFQRILCLSWMDNAAEEPVDYYATALKSRAYSVEDFQPENLESGGVFRNGTCTSRITTL [SSTR1]	803 ± 25
MGDELAPCPVGTTAWPALIQLISKTPCMPQAASNTSLGLGDLRVPSSMLYWLFLPSSLLAAATLAVSPLLLVTILRNQRLRQEPHYLLPANILLSDLAYILLHMLISSSSLGGWELGRMACGILTDAVFAACTSTILSFTAIVLHTYLAVIHPLRYLSFMSHGAAWKAVALIWLVACCFPTFLIWLSKWQDAQLEEQGASYILPPSMGTQPGCGLLVIVTYTSILCVLFLCTALIANCFWRIYAEAKTSGIWGQGYSRARGTLLIHSVLITLYVSTGVVFSLDMVLTRYHHIDSGTHTWLLAANSEVLMMLPRAMLTYLYLLRYRQLLGMVRGHLPSRRHQAIFTIS [GPR148]	219 ± 21
MGDRRFIDFQFQDSNSSLRPRLGNATANNTCIVDDSFKYNLNGAVYSVVFILGLITNSVSLFVFCFRMKMRSETAIFITNLAVSDLLFVCTLPFKIFYNFNRHWPFGDTLCKISGTAFLTNIYGSMLFLTCISVDRFLAIVYPFRSRTIRTRRNSAIVCAGVWILVLSGGISASLFSTTNVNNATTTCFEGFSKRVWKTYLSKITIFIEVVGFIIPLILNVSCSSVVLRTLRKPATLSQIGTNKKKVLKMITVHMAVFVVCFVPYNSVLFLYALVRSQAITNCFLERFAKIMYPITLCLATLNCCFDPFIYYFTLESFQKSFYINAHIRMESLFKTETPLTTKPSLPAIQEEVSDQTTNNGGELMLESTF [LPAR4]	917 ± 150
MGFNLTLAKLPNNELHGQESHNSGNRSDGPGKNTTLHNEFDTIVLPVLYLIIFVASILLNGLAVWIFFHIRNKTSFIFYLKNIVVADLIMTLTFPFRIVHDAGFGPWYFKFILCRYTSVLFYANMYTSIVFLGLISIDRYLKVVKPFGDSRMYSITFTKVLSVCVWVIMAVLSLPNIILTNGQPTEDNIHDCSKLKSPLGVKWHTAVTYVNSCLFVAVLVILIGCYIAISRYIHKSSRQFISQSSRKRKHNQSIRVVVAVFFTCFLPYHLCRIPFTFSHLDRLLDESAQKILYYCKEITLFLSACNVCLDPIIYFFMCRSFSRRLFKKSNIRTRSESIRSLQSVRRSEVRIYYDYTDV [GPR87]	296 ± 15
MGNASNDSQSEDCETRQWLPPGESPAISSVMFSAGVLGNLIALALLARRWRGDVGCSAGRRSSLSLFHVLVTELVFTDLLGTCLISPVVLASYARNQTLVALAPESRACTYFAFAMTFFSLATMLMLFAMALERYLSIGHPYFYQRRVSRSGGLAVLPVIYAVSLLFCSLPLLDYGQYVQYCPGTWCFIRHGRTAYLQLYATLLLLLIVSVLACNFSVILNLIRMHRRSRRSRCGPSLGSGRGGPGARRRGERVSMAEETDHLILLAIMTITFAVCSLPFTIFAYMNETSSRKEKWDLQALRFLSINSIIDPWVFAILRPPVLRLMRSVLCCRISLRTQDATQTSCSTQSDASKQADL [PTGER2]	6315 ± 36
MGNDSVSYEYGDYSDLSDRPVDCLDGACLAIDPLRVAPLPLYAAIFLVGVPGNAMVAWVAGKVARRRVGATWLLHLAVADLLCCLSLPILAVPIARGGHWPYGAVGCRALPSIILLTMYASVLLLAALSADLCFLALGPAWWSTVQRACGVQVACGAAWTLALLLTVPSAIYRRLHQEHFPARLQCVVDYGGSSSTENAVTAIRFLFGFLGPLVAVASCHSALLCWAARRCRPLGTAIVVGFFVCWAPYHLLGLVLTVAAPNSALLARALRAEPLIVGLALAHSCLNPMLFLYFGRAQLRRSLPAACHWALRESQGQDESVDSKKSTSHDLVSEMEV [C5AR2]	685 ± 42

Same assay, conditions: GPCR class: C

Sequence	plasma membrane surface immunostaining intensity
MFVASERKMRAHQVLTFLLLFVITSVASENASTSRGCGLDLLPQYVSLCDLDAIWGIVVEAVAGAGALITLLLMLILLVRLPFIKEKEKKSPVGLHFLFLLGTLGLFGLTFAFIIQEDETICSVRRFLWGVLFALCFSCLLSQAWRVRRLVRHGTGPAGWQLVGLALCLMLVQVIIAVEWLVLTVLRDTRPACAYEPMDFVMALIYDMVLLVVTLGLALFTLCGKFKRWKLNGAFLLITAFLSVLIWVAWMTMYLFGNVKLQQGDAWNDPTLAITLAASGWVFVIFHAIPEIHCTLLPALQENTPNYFDTSQPRMRETAFEEDVQLPRAYMENKAFSMDEHNAALRTAGFPNGSLGKRPSGSLGKRPSAPFRSNVYQPTEMAVVLNGGTIPTAPPSHTGRHLW [GPRC5B]	6190 ± 84
